{"source": "PubChem BioAssay AID686978", "about": "(National Center for Advancing Translational Sciences (NCATS), 2013)", "note": "Hit rate of the full screen: of about 420,000 compounds, about 64,000 (15%) were called active. The inconclusive results got no clear call from the source; some entries with a clear call stand among them for comparison. Calls come from the whole dose curve; as a rule, active = well fitted inhibition curve with a large enough effect; inconclusive = small, poorly fitted or top-dose-only effect; inactive = flat fitted curve, though single readings scatter. No potency is given beside an inconclusive call; the fits are too rough. % is set by controls: 0 for no effect and ±100 for the full control effect; potency is the fitted concentration of half-maximal effect; tags give direction and shape of the fitted curve.", "data": [{"assay": "qHTS for Inhibitors of human tyrosyl-DNA phosphodiesterase 1 (TDP1): qHTS in cells in absence of CPT; note: nearly all actives have a fitted effect of over 55% in size", "details": "DT40 Tdp1-/- hTDP1 cells, no CPT, ATP luminescence, 48 h; activity change, negative = growth inhibition: at 46.2 µM (top of the series) unless noted", "procedure,_shortened": "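Compound effects on proliferation are scored in DT40 Tdp1-/-;hTDP1 cells in the absence of CPT. ATP levels (CellTiter-Glo luminescence) are recorded after a ≥48 hr, 37 °C incubation.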", "values": [{"smiles": "O=C(O)COCC(=O)Nc1ccc(OCCc2ccccc2)cc1", "activity change, negative = growth inhibition": "inactive: 2.36%"}, {"smiles": "CC1=NN(c2ccc(C)c(C)c2)C(=O)C1C(c1cccc(O)c1)C1C(=O)N(c2ccc(C)c(C)c2)N=C1C", "note": "(configuration not stated)", "activity change, negative = growth inhibition": "inconclusive: -34.5% [inhibitor]"}, {"smiles": "CCN(CC)CCNC(=O)c1ccc(CSc2nc3ccncc3n2Cc2cccc(F)c2)cc1", "Potency": "inconclusive [inhibitor, single point]"}, {"smiles": "COC(=O)c1cccc(C(=O)N2CCCC(CCC(=O)N(C)CCc3ccccn3)C2)c1", "note": "(configuration not stated)", "activity change, negative = growth inhibition": "inactive: 9.13%"}, {"smiles": "Cc1ccc(-c2n[nH]c3c2C(c2cccc(O)c2)N(c2ccc(C(=O)O)cc2)C3=O)cc1", "note": "(configuration not stated)", "Potency": "inactive"}, {"smiles": "COC(=O)c1cc(C(=O)OCC(=O)NC(=O)NCc2ccccc2)cc([N+](=O)[O-])c1", "activity change, negative = growth inhibition": "inactive: 16.6%"}, {"smiles": "O=C(COC(=O)c1ccc(Cl)nc1)NCCC1=CCCCC1", "activity change, negative = growth inhibition": "inactive: 21.3%"}, {"smiles": "Cn1cc(CN2CCCC(C(=O)c3cccs3)C2)c(-c2cccc(Cl)c2)n1", "note": "(configuration not stated)", "Potency": "active: 16.4 µM"}, {"smiles": "Cc1onc(-c2ccccc2Cl)c1C(=O)Nc1nnc(C(C)C)s1", "Potency": "inconclusive [inhibitor, single point]"}, {"smiles": "CCCNC(=O)c1nc(C)n(-c2ccc([N+](=O)[O-])cc2)n1", "activity change, negative = growth inhibition": "inactive: -24%"}, {"smiles": "COc1ccc(S(=O)(=O)N(C)[C@H]2C[C@H]3c4cc(-c5ccccc5)ccc4CCN3C(=O)[C@H]2[C@H](C)O)cc1", "Potency": "active: 20.6 µM"}, {"smiles": "CC(C)NC(=O)CN1CCC(c2ccccc2)C(O)C1", "note": "(configuration not stated)", "activity change, negative = growth inhibition": "inactive: 20.8%"}, {"smiles": "N#Cc1ccc(-c2nc3c4ccccc4ccn3c2Cc2cccc(Cl)c2)cc1", "Potency": "active: 18.4 µM"}, {"smiles": "COc1ccc(C(=O)N2N=C(c3ccc(NS(C)(=O)=O)cc3)CC2c2cccs2)cc1", "note": "(configuration not stated)", "Potency": "inconclusive [inhibitor, partial curve]"}, {"smiles": "COc1ccc(CN2CCN(Cc3ccccc3C(F)(F)F)CC2)c(OC)c1", "Potency": "active: 16.4 µM"}, {"smiles": "Cc1onc(-c2c(Cl)cccc2Cl)c1C(=O)Nc1nccs1", "Potency": "inconclusive [inhibitor, single point]"}, {"smiles": "Cc1ccnc(NC(=S)NC(=O)c2cccs2)c1", "activity change, negative = growth inhibition": "inactive: -18.9%"}, {"smiles": "CCN(CC)S(=O)(=O)c1ccc(N2CCCC2)c(NC(=O)c2ccc([N+](=O)[O-])o2)c1", "Potency": "active: 23.1 µM"}, {"smiles": "Cc1occc1C(=O)N1CCCC(Nc2ccc(F)c(F)c2)C1", "note": "(configuration not stated)", "activity change, negative = growth inhibition": "inactive: 10.1%"}, {"smiles": "Cc1cc(NC(=O)NCc2ccccc2)c(=O)n(Cc2ccc(F)cc2)c1", "Potency": "inconclusive [inhibitor, single point]"}, {"smiles": "CC1CCN(CCC(=O)Nc2ccc(F)c(F)c2)CC1", "activity change, negative = growth inhibition": "inactive: -28.8%"}, {"smiles": "COc1cc(C2SC[C@H]3C(=O)N(c4ccccc4)C(=O)N23)cc(OC)c1OC", "note": "(some centres not stated)", "Potency": "inconclusive [inhibitor, single point]"}, {"smiles": "COc1ccc(CNC(=O)C2CCCN(C(=O)N3CCOc4ccccc43)C2)cc1", "note": "(configuration not stated)", "Potency": "inconclusive [inhibitor, single point]"}, {"smiles": "CCOP(=O)(OCC)C(Nc1ccc([N+](=O)[O-])cc1)c1ccc(Cl)cc1", "note": "(configuration not stated)", "Potency": "inconclusive [inhibitor, partial curve, poor fit]"}, {"smiles": "COc1cccc(C(=O)c2cc3cc(Cl)ccc3[nH]2)c1", "Potency": "inconclusive [inhibitor, partial curve]"}, {"smiles": "CC(CCc1ccccc1)NC(=O)CCC(=O)N1CCC(C(=O)O)CC1", "note": "(configuration not stated)", "activity change, negative = growth inhibition": "inactive: -27.4%"}, {"smiles": "COC(=O)c1c(NC(=O)CN2C(=O)NC(CCc3ccccc3)C2=O)sc2c1CCCCC2", "note": "(configuration not stated)", "Potency": "inconclusive [inhibitor, single point]"}, {"smiles": "O=C(Cn1nc(N2CCN(c3ccccc3)CC2)ccc1=O)Nc1ccc(F)cc1F", "Potency": "inconclusive [inhibitor, single point]"}, {"smiles": "COc1ccc(C(CC(=O)c2ccccc2)CC(=O)c2ccccc2)cc1", "Potency": "inconclusive [inhibitor, single point]"}, {"smiles": "COc1cccc(N(CC(=O)N2CCOCC2)S(C)(=O)=O)c1", "activity change, negative = growth inhibition": "inactive: -6.05%"}, {"smiles": "CC(=O)N1N=C(c2ccc3nccnc3c2)CC1c1ccccc1", "note": "(configuration not stated)", "activity change, negative = growth inhibition": "inactive: -4.8%"}, {"smiles": "O=c1cnc2cc([N+](=O)[O-])ccc2[nH]1", "Potency": "inconclusive [inhibitor, full curve]"}, {"smiles": "CNS(=O)(=O)c1ccc(N2CCCC2=O)c([N+](=O)[O-])c1", "activity change, negative = growth inhibition": "inactive: -18.6%"}, {"smiles": "Cn1cccc1/C=N/NC(=O)c1cccnc1", "activity change, negative = growth inhibition": "inactive: -5.94%"}, {"smiles": "COc1ccccc1C1OC2=C(Nc3ccc([N+](=O)[O-])cc3N2)C1=O", "note": "(configuration not stated)", "Potency": "active: 13 µM"}, {"smiles": "CCCN(CCC)S(=O)(=O)c1ccc2c(c1)N(CC(=O)NCc1ccc(F)cc1Cl)C(=O)CS2", "Potency": "inconclusive [inhibitor, single point]"}, {"smiles": "OCC1(Cc2ccccc2)CCCN(Cc2cnn(-c3ccccc3)c2)C1", "note": "(configuration not stated)", "Potency": "inconclusive [inhibitor, single point]"}, {"smiles": "O=C(C1CCN(c2nc(-c3ccccc3)nc3c2CCC3)CC1)N1CCC(O)CC1", "Potency": "inconclusive [inhibitor, single point]"}, {"smiles": "CSc1ccc(C2=CC(=O)C[C@H](c3ccc(F)cc3)C2)cc1", "Potency": "inconclusive [inhibitor, single point]"}, {"smiles": "O=C(CCCn1c(=O)c2ccccc2n(CC(=O)Nc2cccc(C(F)(F)F)c2)c1=O)NCc1ccc2c(c1)OCO2", "activity change, negative = growth inhibition": "inactive: -8.5%"}, {"smiles": "CSc1ncccc1C(=O)N(C)CC(=O)Nc1ccc(Cl)c(C(F)(F)F)c1", "Potency": "inconclusive [inhibitor, single point]"}, {"smiles": "Cc1ccccc1-c1nc(CN2CCC(C(=O)NCCc3ccccc3)CC2)c(C)o1", "Potency": "active: 20.6 µM"}, {"smiles": "O=C(C1=C[C@H](c2ccc(C(F)(F)F)cc2)C[C@H](OCc2ccc(CO)cc2)O1)N1CCCCCCC1", "Potency": "inconclusive [inhibitor, single point]"}, {"smiles": "CCCc1cc(=O)[nH]c2nnc(SCC(=O)Nc3ccc(OC)cc3)n12", "activity change, negative = growth inhibition": "inactive: -4.63%"}, {"smiles": "O=C(COCc1cc(-c2ccc(F)cc2)on1)Nc1cccc(Cl)c1Cl", "Potency": "inconclusive [inhibitor, single point]"}, {"smiles": "O=C(/C=C/c1ccc(OC2CSC2)cc1)c1ccc(Cl)cc1", "Potency": "inconclusive [inhibitor, single point]"}, {"smiles": "O=C(Nc1ccccc1C(=O)OCc1cc(=O)n2ccsc2n1)c1ccc(Cl)cc1", "activity change, negative = growth inhibition": "inactive: -7.15%"}, {"smiles": "O=C(c1cccc(-n2cccc2)c1)N1CCN(S(=O)(=O)c2ccc(F)cc2)CC1", "activity change, negative = growth inhibition": "inactive: 4.26%"}, {"smiles": "CC(OC(=O)c1c2c(nc3ccccc13)/C(=C\\c1ccc3c(c1)OCO3)CCC2)C(=O)Nc1ccc(S(N)(=O)=O)cc1", "note": "(configuration not stated)", "Potency": "active: 18.4 µM"}, {"smiles": "CC1(C)CC(=O)c2c(O)cc(OCC(=O)N3CCN(c4ccc(F)cc4)CC3)cc2O1", "Potency": "inconclusive [inhibitor, single point]"}, {"smiles": "Cc1cc(NC(=O)CCC(=O)N(Cc2ccco2)C2(C(=O)NC3CCCCC3)CCCCC2)no1", "Potency": "inconclusive [inhibitor, single point]"}, {"smiles": "COc1ccc(/C=N/N=C(\\N)c2nonc2N)cc1", "activity change, negative = growth inhibition": "inactive: -21.5%"}, {"smiles": "CCOC(=O)N1CCN(C(=O)c2cc3c(-c4ccc(Cl)cc4)nn(C)c3s2)CC1", "Potency": "active: 11.6 µM"}, {"smiles": "O=C(NCCc1ccccc1)c1cccc(NC(=O)c2ccccc2)c1", "Potency": "inconclusive [inhibitor, partial curve, poor fit]"}, {"smiles": "O=C(NCc1cccn1Cc1ccccc1)Nc1ccc(Br)cc1F", "Potency": "inconclusive [inhibitor, single point]"}, {"smiles": "CC1(C(=O)NCc2cccc(C(F)(F)F)c2)CCN1Cc1ccc2ccccc2c1", "note": "(configuration not stated)", "Potency": "inconclusive [inhibitor, single point]"}, {"smiles": "Fc1cnc(N2CCOCC2)nc1N1CCc2ccccc21", "Potency": "inconclusive [inhibitor, partial curve]"}, {"smiles": "COc1ccc(CCNC(=O)C2CCCN(S(=O)(=O)c3ccc(F)cc3)C2)cc1OC", "note": "(configuration not stated)", "Potency": "inconclusive [inhibitor, partial curve]"}, {"smiles": "COc1ccc(CCNC(=O)c2ccc3c(=O)n(Cc4ccco4)c(=S)[nH]c3c2)cc1OC", "activity change, negative = growth inhibition": "inconclusive: -35.2% [inhibitor]"}, {"smiles": "CC(C)(C)C(=O)N1CCN(S(=O)(=O)c2ccc3c(c2)OCCCO3)CC1", "Potency": "active: 18.4 µM"}, {"smiles": "Cc1ccc(NC(=O)c2ccccc2NS(=O)(=O)c2ccc(Cl)s2)cc1S(=O)(=O)N1CCOCC1", "Potency": "active: 11.6 µM"}, {"smiles": "Fc1ccc(-n2c(Cc3ccccc3)nnc2SCc2nc(-c3ccc(Cl)cc3)no2)cc1", "Potency": "inconclusive [inhibitor, single point]"}, {"smiles": "CCOc1ccc(C(C)=O)cc1COC(=O)c1cnc(Cl)c(Cl)c1", "Potency": "inconclusive [inhibitor, single point]"}, {"smiles": "CCC1CCCCN1C(=O)CSc1nnc(-c2cccc(Cl)c2)o1", "note": "(configuration not stated)", "Potency": "active: 23.1 µM"}, {"smiles": "COC(=O)c1ccc(NC(=S)Nc2cccc(C)n2)cc1", "Potency": "inconclusive [inhibitor, single point]"}, {"smiles": "COc1ccc(OC2C(=O)N(Cc3ccc4c(c3)OCO4)C2c2sccc2C)cc1", "note": "(configuration not stated)", "Potency": "inconclusive [inhibitor, single point]"}, {"smiles": "Cc1ccc(S(=O)(=O)c2nnn3c2nc(NC(C)c2ccccc2)c2sccc23)cc1", "note": "(configuration not stated)", "Potency": "inconclusive [inhibitor, single point]"}, {"smiles": "CCCCc1nn(-c2cc(Cl)ccc2OC)c2c1C(=O)CC(C)(C)C2", "Potency": "active: 20.6 µM"}, {"smiles": "N#CCCn1cc(C=O)c(-c2cccs2)n1", "Potency": "inconclusive [inhibitor, single point]"}, {"smiles": "O=C(CCS(=O)(=O)Cc1ccccc1)Nc1ccc2c(c1)OCCO2", "activity change, negative = growth inhibition": "inactive: -0.997%"}, {"smiles": "O=C(NCc1ccc(Cl)cc1)c1ccc(-c2ccccc2C(F)(F)F)o1", "Potency": "active: 23.1 µM"}, {"smiles": "CCN1C(=O)[C@H]2[C@@H](c3ccc(-c4ccccc4)c(OC)c3)N[C@@](Cc3ccccc3)(C(=O)OC)[C@H]2C1=O", "activity change, negative = growth inhibition": "inactive: -12.4%"}]}]}
